Laboratory results reported in paper PMC4336329 (PLoS ONE, 2015).
About 2,200 (0.71%) of roughly 310,000 compounds showed an effect of 50% or more. The effect is printed as a negative number. Some of the results follow.

biological target: human ether-à-go-go-related gene (hERG) potassium channel (human, UniProt Q12809); test: primary screen, population patch clamp on CHO cells stably expressing hERG
Sequence (Q12809 whole entry, looked up): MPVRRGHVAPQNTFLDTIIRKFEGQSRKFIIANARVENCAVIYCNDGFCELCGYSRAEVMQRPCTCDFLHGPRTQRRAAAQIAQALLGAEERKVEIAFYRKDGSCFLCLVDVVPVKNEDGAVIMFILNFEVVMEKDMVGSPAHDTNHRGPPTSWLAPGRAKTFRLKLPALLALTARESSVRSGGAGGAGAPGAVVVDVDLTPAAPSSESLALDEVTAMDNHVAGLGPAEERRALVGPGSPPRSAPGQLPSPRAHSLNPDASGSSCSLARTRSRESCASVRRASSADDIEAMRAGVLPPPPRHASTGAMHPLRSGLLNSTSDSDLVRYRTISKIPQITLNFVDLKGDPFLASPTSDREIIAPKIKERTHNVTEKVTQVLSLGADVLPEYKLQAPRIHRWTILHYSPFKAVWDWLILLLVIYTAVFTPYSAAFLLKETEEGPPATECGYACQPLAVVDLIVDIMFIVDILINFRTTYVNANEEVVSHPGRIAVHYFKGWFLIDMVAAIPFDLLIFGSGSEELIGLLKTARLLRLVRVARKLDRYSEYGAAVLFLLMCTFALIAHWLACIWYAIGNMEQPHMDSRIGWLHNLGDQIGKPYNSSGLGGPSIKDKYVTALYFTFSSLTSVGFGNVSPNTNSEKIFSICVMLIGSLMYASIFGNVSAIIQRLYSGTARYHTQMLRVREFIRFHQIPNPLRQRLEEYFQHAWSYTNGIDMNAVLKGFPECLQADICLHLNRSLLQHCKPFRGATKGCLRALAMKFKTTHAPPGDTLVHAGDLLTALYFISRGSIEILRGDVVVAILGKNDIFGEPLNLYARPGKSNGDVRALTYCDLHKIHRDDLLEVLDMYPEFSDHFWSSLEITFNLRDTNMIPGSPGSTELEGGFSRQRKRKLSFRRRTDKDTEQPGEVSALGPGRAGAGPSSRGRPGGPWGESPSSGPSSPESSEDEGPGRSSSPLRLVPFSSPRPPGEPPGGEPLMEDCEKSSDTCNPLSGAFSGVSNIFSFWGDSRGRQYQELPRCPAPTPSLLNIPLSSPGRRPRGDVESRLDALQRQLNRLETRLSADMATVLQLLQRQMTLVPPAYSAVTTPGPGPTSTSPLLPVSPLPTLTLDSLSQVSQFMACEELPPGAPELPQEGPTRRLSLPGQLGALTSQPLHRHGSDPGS

SMILES | hERG current change (%, negative = inhibition) at 1uM
COc1ccc(NC(=O)c2ccc(N(C)S(C)(=O)=O)cc2)cc1OC | 10.8%
CCC(=O)Nc1ccc(NC(=S)NC(=O)c2oc3ccccc3c2C)cc1 | 9.94%
COc1ccc(-c2nc(-c3ccccc3)[nH]c(=O)c2C#N)cc1 | 18.4%
O=CNCCCc1nc2ccccc2n1CCc1ccccc1 | 10.3%
Cc1cccc2sc(NC(=O)C3=NN(c4ccccc4)C(=O)CC3)nc12 | -3.7%
COC(=O)c1cc(NC(=O)Nc2ccccc2OC)cc(C(=O)OC)c1 | -2.02%
COC(C[C@H]1O[C@@H]1[C@H](O)COCc1ccccc1)OC | 12.7%
O=c1[nH]c(N2CCCCC2)nc2ncn(Cc3ccccc3)c12 | 4.24%
NS(=O)(=O)c1ccc(NC(=O)COC(=O)c2cccc(S(=O)(=O)N3CCCC3)c2)cc1 | 8.5%
COC(=O)Cc1ccc(NC(=S)NNC(=O)c2ccccc2Br)cc1 | 8.41%
NC(=O)C1CCN(C(=O)CN(c2cccc(C(F)(F)F)c2)S(=O)(=O)c2ccccc2)CC1 | 0.903%
CC1CCC2(CC1)NC(=S)N(c1ccccc1)N2 (stereo not drawn) | 11.1%
CCCOc1ccc(C(=O)Nc2cccnc2)cc1 | 11.5%
COc1ccc(C(=O)C2CCCN(C(=O)c3cccnc3OC)C2)cc1F (stereo not drawn) | 7.24%
Nc1nnn(CC(=O)N/N=C/c2ccco2)n1 | 13.2%
CC1=NN(c2ccccc2)C(=O)C1N=Nc1ccc(C)cc1 (stereo not drawn) | 11.1%
CCc1cc2c(=O)c(-c3nc4ccccc4n3C)c(C(C)C)oc2c(CN2CCN(C)CC2)c1O | 6.41%
Cc1c(Cc2ccc3c(c2)OCO3)sc(NC(=O)c2ccccc2)c1C(N)=O | 7.04%
Nc1nnc(N2CCCCC2)s1 | 4.04%
Cn1c(O)c(/C=C2/C=CC=N2)c(=O)[nH]c1=O | 5.15%
Cc1ccc2[nH]c(=O)c(CN(Cc3cccnc3)C(=O)c3ccncc3)cc2c1 | -1.51%
CN(c1ccccc1C(=O)NC1CCCCC1)S(=O)(=O)c1ccccc1 | 13.6%
CCCOC1OC(=O)c2c1ccc(OC)c2OC (stereo not drawn) | 11.9%

SMILES | hERG current change (%, negative = inhibition) at 1uM
CCCCn1c(CN2CCN(C(=O)c3ccco3)CC2)nc2c1c(=O)n(C)c(=O)n2C | -7.1%
COc1ccc(/C=C(\NC(=O)c2ccccc2)C(=O)NC2CCS(=O)(=O)C2)cc1 (stereo not drawn) | 1.37%
COc1ccc(CNC(=O)COC(=O)CCCOc2ccc(Cl)cc2Cl)cc1OC | 10.4%
Cc1cc(S(=O)(=O)N2CCCC2)ccc1OCC(=O)N1CCCCC1 | -8%
O=C(CCCCCCCC(=O)c1ccccc1)c1ccccc1 | 13.1%
COc1ccc(-n2nnnc2SCC(=O)Nc2ccc3c(c2)OCCO3)c(OC)c1 | 16.9%
O=C(O)c1cccc(NC(=O)c2cn(-c3ccccc3)nc2-c2cc3ccccc3o2)c1 | 1.13%
O=C(Nc1ccccc1)c1oc2ccccc2c1NC(=O)C1CC1 | 5.44%
C=CCC(C#Cc1ccc(C)cc1)N(CC)CC (stereo not drawn) | 7.85%
Cc1ccc(CNC(=O)c2ccc(N3CCC4(CC3)CC(c3ccccc3)=NO4)c(N)c2)cc1 | 10.8%
COc1cc(OC)cc(C(=O)NC2CCCCCCC2)c1 | 3.21%
O=C(O)COn1c(-c2ccccc2)nc2ccc([N+](=O)[O-])cc21 | 15.7%
OCCCC1CCCN(Cc2cn[nH]c2-c2ccc(F)cc2F)C1 (stereo not drawn) | 9.16%
Cc1cc(C)n2nc(C(=O)NC(c3ccccc3)c3ccccc3)nc2n1 | 9.57%
Cc1noc2ncnc(Oc3ccc(Cl)cc3Cl)c12 | 8.47%
CCCC(=O)Nc1ccc(NC(=S)NC(=O)c2cccs2)cc1 | 13.1%
CC(=O)N1CC2(NC(=O)c3ccccc3N2)c2ccccc21 (stereo not drawn) | 10.2%
COc1ccc(C2=NS(=O)(=O)N(C)C(C(=O)NCc3ccccn3)=C2)cc1 | -5.31%
O=C1c2ccccc2C(=O)N1OS(=O)(=O)c1ccc(F)cc1 | 13.9%
CCOC(=O)Nc1cccc(Nc2ccccc2)c1 | -24.3%
Cn1nc(C(=O)NCc2ccc(F)cc2)c2ccccc2c1=O | 9.21%
COc1cccc(NC(=O)COc2ccccc2C(N)=O)c1 | -0.822%
CCn1c2ccc(F)cc2c2nnc(NN)nc21 | 3.31%

SMILES | hERG current change (%, negative = inhibition) at 1uM
CCCNC(=O)Cn1cnc2sc(C(=O)N3CCN(c4ccc(F)cc4)CC3)c(C)c2c1=O | -8.15%
O=C(NCCOc1ccccc1Cl)c1cc(F)c(F)cc1Cl | 5.5%
Cc1cc(C(=O)OCC(=O)N2c3ccccc3NC(=O)C2(C)C)c(C)n1-c1ccccc1 | 12.7%
Cc1ccccc1-c1nnn(CC(=O)Nc2cccc(S(N)(=O)=O)c2)n1 | -0.834%
Cc1ccccc1OCC(=O)N/N=C/c1ccc2c(c1)OCCO2 | 2.07%
O=C(O)COc1ccc(/C=N/NC(=O)c2cccc3ccccc23)cc1 | 13.9%
CN(Cc1nc2ccccc2s1)C(=O)c1ccc(F)cc1 | 2.72%
CCOC(=O)NC(=O)CSc1nnnn1-c1ccccc1 | 10.4%
C/C(=N\NC(N)=S)C12CC3CC(CC(C3)C1)C2 | 14.1%
COc1ccc(CNC(=S)N/N=C/c2ccncc2)cc1 | 7.9%
CCCOc1ccc(NC(=O)C(=O)NCCCn2ccnc2)cc1 | -9.78%
O=C(O)c1cccc(CN2C(=O)S/C(=C/c3ccccc3[N+](=O)[O-])C2=O)c1 | 10.7%
Cc1ccc(NC(=O)NCCSc2ccc(C)cc2)cc1 | 11.3%
Cc1cc(/C=N/NC(=O)C(O)(c2ccccc2)c2ccccc2)c(C)n1-c1ccc(C(=O)O)cc1 | 15.1%
O=C(CN1C(=O)/C(=C/c2c(F)cccc2Cl)Oc2ccccc21)NCc1ccco1 | -0.908%
CCOC(=O)c1cnc2c(C(=O)OC)cccc2c1NCCN1CCOCC1 | -47.1%
O=C(Nc1ccccc1Cl)c1cccc(COc2cc(Cl)ccc2Cl)c1 | 7.02%
Cn1c(=O)c2[nH]c(COc3ccc(C(C)(C)C)cc3)nc2n(C)c1=O | -16.8%
CCOC(=O)c1[nH]c2ccc(OCC)cc2c1NC(=O)CN1CCN(c2ccccc2)CC1 | 15.9%
O=C(O)CC(NC(=O)C(c1ccccc1)c1ccccc1)c1cccc([N+](=O)[O-])c1 (stereo not drawn) | 3.66%
CCOC(=O)c1c(N)sc(C(=O)N(C)C)c1CN1CCOCC1 | -4.21%
Cc1c(N2C(=O)CS/C2=N\N=C\c2ccc(Cl)cc2)c(=O)n(-c2ccccc2)n1C | -11%
O=[N+]([O-])c1ccc(/C=N\NS(=O)(=O)c2ccc(F)cc2)o1 | 2.37%

SMILES | hERG current change (%, negative = inhibition) at 1uM
Cc1nn(C(=O)Cn2ccc([N+](=O)[O-])n2)c(C)c1Cl | 12%
O=C(Nc1cccc(Cl)c1)Nc1ccc2nccnc2c1 | 14.6%
COc1cc(OC)cc(C(=O)NCc2n[nH]c(=S)n2-c2ccccc2OC)c1 | 17.2%
O=C(NCc1ccco1)C1CCCN1S(=O)(=O)c1ccc2ccccc2c1 (stereo not drawn) | 10.9%
CC(C)CC1NC(=O)N(CC(=O)N2CCN(S(=O)(=O)c3ccc(Cl)cc3)CC2)C1=O (stereo not drawn) | -13%
CCOC(=O)CNC(=O)c1sc(NC(=O)/C=C/c2ccccc2)nc1C | 11.1%
CCOC(=O)c1cnc2c(C(F)(F)F)cccc2c1NCCCN1CCOCC1 | 3.64%
COc1cccc(OC)c1C(=O)OCC(=O)N1CC(C)CC(C)C1 (stereo not drawn) | 16.3%
Cc1cccc(NC(=S)NC(NC(=O)c2ccco2)C(Cl)(Cl)Cl)c1 (stereo not drawn) | 13.1%
CCCNC(=S)NNC(=O)c1cc(-c2cccnc2)nc2ccccc12 | 13%
COCC(=O)NNC(=O)c1ccccc1OC | 15%
CSc1ncccc1C(=O)Nc1cccc(S(=O)(=O)N2CCCCC2)c1 | -20.1%
O=S(=O)(c1ccsc1)N1CC=C(c2ccccc2)CC1 | 15.2%
N=c1sc2ccccc2n1-c1ccccc1 | -0.156%
O=C(NCCC1=CCCCC1)C1CCN(S(=O)(=O)c2ccc(Br)s2)CC1 | 15%
Cc1cccc(NC(=O)CNC(=O)CN2CCN(C)CC2)c1C | 8.17%
Cn1cc(C(=O)N2CCCCC2)c2ccccc21 | 13.7%
COc1ccc(NC(=O)CN(C)C(=O)C2CSC3(C)CCC(=O)N23)cc1 (stereo not drawn) | 0.725%
CS(=O)(=O)c1ccc(Cl)c(NC(=O)CSc2nc3ccccc3c(=O)n2Cc2ccco2)c1 | 7.36%
CCn1c(O)c(N=Nc2ccc(Cl)c(C(=O)O)c2)c2ccccc21 | 13.2%
N#CC(Sc1ccccn1)c1ccc(Cl)cc1Cl (stereo not drawn) | 13.8%
